Reference: the supplement of paper PMC4967469

Columns and labels:
Test in all cases: Viability of human cancer cell lines after 72 h of drug (GDSC screen)
PD-173074 = compound: CCN(CC)CCCCNc1ncc2cc(-c3cc(OC)cc(OC)c3)c(NC(=O)NC(C)(C)C)nc2n1 [PD-173074]; settings: top dose 2 µM; top dose inferred
Experimental: (§1)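 Human cancer cell lines in 384-well plates, medium with 10% serum, drug for 72 h over a 256-fold dose range (nine 2-fold or five 4-fold steps up to the top dose). Adherent lines were fixed and stained with the nucleic acid dye Syto60, suspension lines read with resazurin; signal relative to control wells, capped at 0 and 100%. One two-parameter sigmoid per drug and line, fitted in a mixed model over all curves with the slope shared within a line.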

TGX221 = compound: Cc1cc(C(C)Nc2ccccc2)c2nc(N3CCOCC3)cc(=O)n2c1 [TGX221]; settings: top dose 10 µM
Experimental: as §1

SB590885 = compound: CN(C)CCOc1ccc(-c2nc(-c3ccncc3)c(-c3ccc4c(c3)CC/C4=N\O)[nH]2)cc1 [SB590885]; settings: top dose 5 µM; top dose inferred
Experimental: as §1

Lapatinib = compound: CS(=O)(=O)CCNCc1ccc(-c2ccc3ncnc(Nc4ccc(OCc5cccc(F)c5)c(Cl)c4)c3c2)o1 [Lapatinib]; settings: top dose 2 µM
Experimental: as §1

Row | Cell Line | AUC (PD-173074) | IC50 (PD-173074) | AUC (TGX221) | IC50 (TGX221) | AUC (SB590885) | IC50 (SB590885) | AUC (Lapatinib) | IC50 (Lapatinib)
1 | SBC-1 (small cell lung carcinoma, suspension) | 0.989 | > 2000 nM | 0.98 | > 10 µM | 0.989 | > 5 µM | 0.989 | > 2000 nM
2 | SCH (stomach, adherent) | 0.988 | > 2000 nM | 0.988 | > 10 µM | 0.984 | > 5 µM | 0.988 | > 2000 nM
3 | SF126 (glioma, adherent) | 0.96 | > 2000 nM | 0.874 | > 10 µM | 0.986 | > 5 µM | 0.983 | > 2000 nM
4 | SF268 (glioma, adherent) | 0.985 | > 2000 nM | 0.943 | > 10 µM | 0.985 | > 5 µM | 0.934 | > 2000 nM
5 | SF539 (glioma, adherent) | 0.985 | > 2000 nM | 0.979 | > 10 µM | 0.99 | > 5 µM | 0.966 | > 2000 nM
6 | SH-4 (melanoma, adherent) | 0.972 | > 2000 nM | 0.947 | > 10 µM | 0.631 | 0.881 µM | 0.967 | > 2000 nM
7 | SHP-77 (small cell lung carcinoma, semi-adherent) | 0.991 | > 2000 nM | 0.983 | > 10 µM | 0.99 | > 5 µM | 0.979 | > 2000 nM
8 | SIMA (neuroblastoma, adherent) | 0.976 | > 2000 nM | 0.976 | > 10 µM | 0.985 | > 5 µM | 0.981 | > 2000 nM
9 | SJSA-1 (bone, adherent) | 0.984 | > 2000 nM | 0.931 | > 10 µM | 0.929 | > 5 µM | 0.964 | > 2000 nM
10 | SK-ES-1 (Ewing sarcoma, semi-adherent) | 0.944 | > 2000 nM | 0.984 | > 10 µM | 0.961 | > 5 µM | 0.984 | > 2000 nM
11 | SK-LMS-1 (soft tissue, adherent) | 0.987 | > 2000 nM | 0.932 | > 10 µM | 0.987 | > 5 µM | 0.937 | > 2000 nM
12 | SK-MEL-1 (melanoma, suspension) | 0.993 | > 2000 nM | 0.985 | > 10 µM | 0.875 | 3.81 µM | 0.989 | > 2000 nM
13 | SK-MM-2 (myeloma, suspension) | 0.987 | > 2000 nM | 0.983 | > 10 µM | 0.987 | > 5 µM | 0.985 | > 2000 nM
14 | SK-N-FI (neuroblastoma, adherent) | 0.989 | > 2000 nM | 0.989 | > 10 µM | 0.99 | > 5 µM | 0.99 | > 2000 nM
15 | SK-PN-DW (Ewing sarcoma, adherent) | 0.964 | > 2000 nM | 0.965 | > 10 µM | 0.961 | > 5 µM | 0.986 | > 2000 nM
16 | SKM-1 (haematopoietic neoplasm, suspension) | 0.778 | 900 nM | 0.984 | > 10 µM | 0.972 | > 5 µM | 0.965 | > 2000 nM
17 | SLVL (B-cell lymphoma, suspension) | 0.962 | > 2000 nM | 0.985 | > 10 µM | 0.986 | > 5 µM | 0.985 | > 2000 nM
18 | SNB75 (glioma, adherent) | 0.963 | > 2000 nM | 0.827 | > 10 µM | 0.972 | > 5 µM | 0.94 | > 2000 nM
19 | SNU-C1 (large intestine, suspension) | 0.947 | > 2000 nM | 0.96 | > 10 µM | 0.98 | > 5 µM | 0.975 | > 2000 nM
20 | SR (lymphoid neoplasm, suspension) | 0.889 | 1880 nM | 0.98 | > 10 µM | 0.92 | > 5 µM | 0.97 | > 2000 nM
21 | ST486 (Burkitt lymphoma, suspension) | 0.978 | > 2000 nM | 0.987 | > 10 µM | 0.989 | > 5 µM | 0.978 | > 2000 nM
22 | SU-DHL-4 (B-cell lymphoma, suspension) | 0.997 | > 2000 nM | 0.914 | 7.06 µM | 0.997 | > 5 µM | 0.997 | > 2000 nM
23 | SU-DHL-6 (B-cell lymphoma, suspension) | 0.994 | > 2000 nM | 0.587 | 1.02 µM | 0.995 | > 5 µM | 0.988 | > 2000 nM
24 | SU-DHL-8 (B-cell lymphoma, suspension) | 0.984 | > 2000 nM | 0.976 | > 10 µM | 0.979 | > 5 µM | 0.93 | > 2000 nM
25 | SU-DHL-16 (B-cell lymphoma, suspension) | 0.995 | > 2000 nM | 0.983 | > 10 µM | 0.996 | > 5 µM | 0.991 | > 2000 nM
26 | SUP-B15 (lymphoblastic leukaemia, suspension) | 0.953 | > 2000 nM | 0.972 | > 10 µM | 0.974 | > 5 µM | 0.977 | > 2000 nM
27 | SUP-HD1 (Hodgkin lymphoma, suspension) | 0.968 | > 2000 nM | 0.955 | > 10 µM | 0.985 | > 5 µM | 0.975 | > 2000 nM
28 | SUP-M2 (anaplastic large cell lymphoma, suspension) | 0.994 | > 2000 nM | 0.994 | > 10 µM | 0.994 | > 5 µM | 0.993 | > 2000 nM
29 | SUP-T1 (T-cell lymphoblastic leukaemia, suspension) | 0.975 | > 2000 nM | 0.988 | > 10 µM | 0.985 | > 5 µM | 0.99 | > 2000 nM
30 | SW684 (fibrosarcoma, adherent) | 0.981 | > 2000 nM | 0.78 | 6.24 µM | 0.983 | > 5 µM | 0.98 | > 2000 nM

IC50 is the fitted dose that halves viability relative to control wells, and lower means more sensitive; fits outside the tested doses are given as limits. AUC, from the same fit, is the share of area under the viability curve across the 256-fold dose range; values near 1 show little effect. For part of these data: The top dose, if marked as inferred, was calculated from the reported fits.
